Data: the antibiotic and cytotoxicity screens of Wong et al. (2023)
This is one part of the list.

tested on: S. aureus RN4220; experiment: growth inhibition call (relative growth <= 0.2); details: 50 µM

Growth inhibition call, inactive:
C[C@H](CO)N1C[C@H](C)[C@H](CN(C)Cc2ccc(C(=O)O)cc2)Oc2ccc(NS(C)(=O)=O)cc2CC1=O
Cc1noc(C)c1NC(=O)N(C)C[C@H]1Oc2ccc(NS(=O)(=O)c3cccs3)cc2CC(=O)N([C@@H](C)CO)C[C@H]1C
COc1ccc(C#Cc2ccc3c(c2)[C@@]2(C(=O)N3C(=O)N[C@@H](C)c3ccccc3)[C@H](c3ccc(OCCO)cc3)N3[C@H](c4ccccc4)[C@H](c4ccccc4)OC(=O)[C@H]3[C@@H]2C(=O)O)cc1
C[C@H]1CN([C@@H](C)CO)C(=O)Cc2cc(NC(=O)Nc3ccc4c(c3)OCO4)ccc2O[C@H]1CN(C)Cc1ccc(Cl)c(Cl)c1
C[C@@H]1CN([C@H](C)CO)C(=O)Cc2cc(NC(=O)Nc3cccc4ccccc34)ccc2O[C@@H]1CN(C)Cc1ccncc1
C[C@@H]1CN([C@@H](C)CO)C(=O)Cc2cc(NC(=O)Cn3cnnn3)ccc2O[C@H]1CN(C)Cc1ccccc1
C[C@@H]1CN([C@@H](C)CO)S(=O)(=O)c2ccc(C#CCN(C)C)cc2O[C@@H]1CN(C)C
